Test results taken from PubChem BioAssay AID485294 (National Center for Advancing Translational Sciences (NCATS), 2010).
In all, about 370,000 compounds went through this assay and about 150 (0.041%) were called active. This list was built around the results that the source calls inconclusive (neither active nor inactive); the mix of calls is not that of the screen. The call rests on the fitted dose curve; in most records, active means well fitted inhibition curve with a large enough effect; inconclusive means small, poorly fitted or top-dose-only effect; inactive means flat fitted curve, though single readings scatter. No potency is given beside an inconclusive call; the fits are too rough.

These compounds were tested against Beta-lactamase (Escherichia coli (strain K12)) (UniProt P00811) (assay: qHTS Inhibitors of AmpC Beta-Lactamase (assay with detergent)). Details: AmpC hydrolysis of nitrocefin, absorbance 480 nm, 0.01% Triton; activity change, negative = inhibition: at 114 µM (top of the series).
Outline: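 AmpC (5.3 nM in the dispensed reagent) in 20 mM phosphate pH 7.0 with 0.01% (detergent screen) or 0.0001% Triton X-100 was preincubated with compounds for 15 min at room temperature. Nitrocefin was then added from an 800 uM solution, and hydrolysis was followed at 480 nm.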
Further: nearly all actives have a fitted effect of over 25% in size.
Potency means the concentration at half of the fitted maximal effect; tags describe the fitted curve by direction and shape.
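Wherever activity change, negative = inhibition is given: 0% = no-compound wells and -100% = no-enzyme wells.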

Chain of UniProt P00811 (P00811 whole entry, looked up): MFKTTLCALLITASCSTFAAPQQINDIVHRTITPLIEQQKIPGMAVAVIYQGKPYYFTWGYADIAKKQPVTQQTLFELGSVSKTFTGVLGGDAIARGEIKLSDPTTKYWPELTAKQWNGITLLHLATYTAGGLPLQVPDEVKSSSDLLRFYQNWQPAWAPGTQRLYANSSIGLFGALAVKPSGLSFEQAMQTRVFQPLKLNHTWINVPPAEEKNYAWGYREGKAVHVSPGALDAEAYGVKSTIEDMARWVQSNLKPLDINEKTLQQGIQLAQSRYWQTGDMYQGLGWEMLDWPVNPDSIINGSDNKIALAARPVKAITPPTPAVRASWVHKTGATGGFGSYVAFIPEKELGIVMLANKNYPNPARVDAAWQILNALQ

| Compound | Potency | activity change, negative = inhibition |
| --- | --- | --- |
| COc1cc(NCCC(=O)c2cccs2)c(OC)cc1Cl | inconclusive [inhibitor, partial curve, poor fit] | – |
| COc1cc2c(cc1OC)/C(=C/C(=O)c1ccccc1)NCC2 | – | inactive: -0.656% |
| CCOC(=O)N1CCC(N(CCCOC)C(=O)Nc2ccc(CC)cc2)CC1 | inconclusive [inhibitor, full curve, poor fit] | – |
| O=C(COc1ccccc1[N+](=O)[O-])OC1CCS(=O)(=O)C1 (stereo unspecified) | inconclusive [inhibitor, single point] | – |
| Cc1cc(-c2ccc(C)c(S(=O)(=O)N3CCN(c4ccc([N+](=O)[O-])cc4)CC3)c2)on1 | – | inactive: -16.7% |
| COc1ccc(OCCC(=O)N2CCOCC2)cc1 | – | inactive: -9.76% |
| COCCn1c(C)cc(C(=O)COC(=O)Cc2n[nH]c(=O)c3ccccc23)c1C | – | inactive: -14.2% |
| CCCc1ccc(Oc2c(-c3ccc(O)c(C)c3O)n[nH]c2C)cc1 | inconclusive [inhibitor, partial curve, poor fit] | – |
| Cc1ccc(S(=O)(=O)N2CCCC(C(=O)NCCc3ccccc3)C2)cc1 (stereo unspecified) | inconclusive [inhibitor, full curve, poor fit] | – |
| Cc1cccc(C(=O)NC(=S)NNC(=O)c2ccc(Cl)cc2)c1 | inconclusive [inhibitor, single point] | – |
| O=C(NC1=NCCS1)c1cc(-c2ccc(-c3ccccc3)cc2)nc2ccccc12 | inconclusive [inhibitor, full curve, poor fit] | – |
| COc1ccccc1N1CCN(Cc2ccc(-c3ccccc3[N+](=O)[O-])o2)CC1 | inconclusive [inhibitor, full curve, poor fit] | – |
| Cn1c(=NC(=O)CN2C(=O)C3CC=CCC3C2=O)sc2ccccc21 (stereo unspecified) | inconclusive [inhibitor, full curve, poor fit] | – |
| O=c1[nH]n2cc(-n3cc([N+](=O)[O-])cn3)cnc2c1Br | inconclusive [inhibitor, full curve] | – |
| O=C(Nc1ccc2c(c1)OCO2)c1cccc(S(=O)(=O)N2CCCC2)c1 | inconclusive [inhibitor, partial curve] | – |
| O=C1NC(=O)C(c2cn(-c3ccccc3)nc2-c2ccc(F)cc2)N1 (stereo unspecified) | – | inactive: -0.686% |
| Cc1ccc(CCNC(=O)NCc2noc3ccc(C)cc23)cc1 | – | inactive: 2.89% |
| Clc1cccc(-c2cc3nc4c(c(NCc5ccco5)n3n2)CCCC4)c1 | inconclusive [inhibitor, single point] | – |
| C=CCn1c(COc2ccccc2OC)nc2ccccc21 | inconclusive [inhibitor, full curve, poor fit] | – |
| Cc1ccc(S(=O)(=O)N2CCC(C(=O)NCC3CCCCC3)CC2)cc1 | – | inactive: -8.73% |
| Cn1c(SCCOc2ccccc2Cl)nnc1-c1ccncc1 | inconclusive [inhibitor, full curve, poor fit] | – |
| O=C(Nc1cccc(O)c1)c1ccc2c(c1)C(=O)N(Cc1ccco1)C2=O | – | inactive: 0.294% |
| Cc1ccc(-c2c(C(=O)N/N=C/c3sccc3C)nnn2-c2nonc2N)cc1 | – | inactive: -5.28% |
| Cc1ccc(C)n1C(CC(=O)O)c1ccc(C#N)cc1 (stereo unspecified) | – | inactive: 2.33% |

| Compound | Potency | activity change, negative = inhibition |
| --- | --- | --- |
| O=C(O)[C@H](Cc1ccccc1)N1Cc2ccccc2C1=O | inconclusive [inhibitor, full curve, poor fit] | – |
| Cc1oc2c(c1C(=O)c1ccc(Cl)cc1)C(=O)C(=O)c1ccccc1-2 | – | inactive: 3.07% |
| CN(Cc1c[nH]c2ccccc12)C1CCCCC1 | – | inactive: -11.2% |
| Cc1ccc(NC(=O)CSc2nnc(-c3ccncc3)o2)cc1 | inconclusive [inhibitor, single point] | – |
| O=C1NC(c2ccccc2)CCC1(Cl)Cl (stereo unspecified) | inconclusive [inhibitor, full curve] | – |
| COc1ccc(CN(C)C(=O)/C=C/c2ccc(S(=O)(=O)N3CCOCC3)cc2)cc1F | inconclusive [inhibitor, full curve, poor fit] | – |
| COC(=O)c1c(NC(=O)c2ccc(Br)o2)sc(C)c1C | inconclusive [inhibitor, single point] | – |
| Cc1ccc(/C=c2\sc3nc(-c4ccco4)nn3c2=O)o1 | inconclusive [inhibitor, full curve, poor fit] | – |
| CCc1ccc(NC(=O)N(C2CCC(C)CC2)C2CCN(C(C)=O)CC2)cc1 (stereo unspecified) | inconclusive [inhibitor, partial curve, poor fit] | – |
| Nc1c(C(=O)CSc2nccn2-c2cccc(F)c2)c(=O)[nH]c(=O)n1C1CC1 | inconclusive [inhibitor, partial curve] | – |
| O=C(/C=C\c1ccco1)Nc1nc(-c2ccccc2)cs1 | – | inactive: 2.64% |
| O=C(C(Sc1ccccc1)c1ccccc1)N1CCN(c2ccccc2)CC1 (stereo unspecified) | – | inactive: -11.8% |
| O=S(=O)(Nc1ccc(Cl)cn1)c1cccs1 | inconclusive [inhibitor, partial curve, poor fit] | – |
| C=CCNC(=S)Nc1cc(Cl)ccc1OC | inconclusive [inhibitor, full curve] | – |
| Cn1cnc2cc(NCc3ccccc3O)ccc21 | – | inactive: 7.49% |
| Cc1nc(C#N)c(N/N=C/c2cccc(Cl)c2)o1 | inconclusive [inhibitor, full curve, poor fit] | – |
| CC1CCCC(NC(=O)c2cc(S(=O)(=O)N3CCOCC3)ccc2F)C1C (stereo unspecified) | inconclusive [inhibitor, full curve] | – |
| CCn1c(C(=O)NCCCc2ccccc2)cc2sccc21 | inconclusive [inhibitor, partial curve, poor fit] | – |
| CC1CN(c2oc(COc3ccc(Cl)cc3Cl)nc2C#N)CC(C)O1 (stereo unspecified) | inconclusive [inhibitor, partial curve, poor fit] | – |
| CC(C)OC(=O)CSc1n[nH]c(-c2cccnc2)n1 | inconclusive [inhibitor, partial curve] | – |
| COc1ccc2c3c([nH]c2c1)C(C)=NCC3 | inconclusive [inhibitor, full curve, poor fit] | – |
| CN1C(=S)N(c2ccccc2)C(=O)/C1=C/c1cccs1 | – | inactive: -14.7% |
| COc1ccccc1C(=O)NCCn1cc(SCC(=O)NCc2ccco2)c2ccccc21 | inconclusive [inhibitor, full curve] | – |
| CN1CCc2c(sc(/N=C/c3c[nH]c4ccccc34)c2C#N)C1 | – | inactive: 2.78% |

| Compound | Potency | activity change, negative = inhibition |
| --- | --- | --- |
| O=C(Cn1cnc2c(nnn2Cc2ccc(F)cc2)c1=O)NCc1ccc(F)cc1 | – | inactive: 3.57% |
| COC(CNC(=O)C(=O)Nc1cc2c3c(c1)CCN3C(=O)CC2)OC | inconclusive [inhibitor, full curve, poor fit] | – |
| CC1CCc2[nH]c3ccc(C(=O)N(C)CC(=O)Nc4ccc(F)cc4)cc3c2C1 (stereo unspecified) | – | inactive: 11.4% |
| Cc1ccc(C2=N/C(=C\N(C)C)C(=O)O2)cc1 | – | inactive: -7.41% |
| O=C(O)C1C2C=CC(O2)C1C(=O)Nc1ccccc1C(F)(F)F (stereo unspecified) | – | inactive: -11.8% |
| Cc1noc(C)c1S(=O)(=O)Nc1ccc(C(=O)NCCc2ccccc2)cc1 | inconclusive [inhibitor, full curve] | – |
| Cc1cccc(CN2CCc3c(OCC(=O)N4CCCc5ccccc54)cccc3C2=O)c1 | – | inactive: -4.25% |
| COc1ccc(CNC(=O)CCSCc2ccc(C)cc2)cc1 | inconclusive [inhibitor, single point] | – |
| CCCc1[nH]n(-c2nc3ccccc3s2)c(=O)c1C=NCCN1CCOCC1 | inconclusive [inhibitor, full curve, poor fit] | – |
| Cc1ccc(-n2c(=O)[nH]cc(C(=O)N3CCc4ccccc43)c2=O)cc1 | inconclusive [inhibitor, full curve, poor fit] | – |
| O=C(c1ccco1)N1CCN(c2cc(C(F)(F)F)nc3ncnn23)CC1 | inconclusive [inhibitor, full curve] | – |
| CCCCn1c(N)c(N(CC(C)C)C(=O)C2CCC2)c(=O)[nH]c1=O | inconclusive [inhibitor, full curve, poor fit] | – |
| CC(C)c1ccc(/C=N/NC(=O)c2c(Cl)cnn2C)cc1 | inconclusive [inhibitor, partial curve] | – |
| Cc1ccc(-c2noc(CCC(=O)Nc3ccc(F)cc3Cl)n2)cc1 | – | inactive: 10.2% |
| O=C(CCc1[nH]c2ccccc2c1Sc1ccccc1)N(CCO)CCO | inconclusive [inhibitor, full curve] | – |
| CCc1ccc(C(C)NC(=S)NC2CCCCC2)cc1 (stereo unspecified) | – | inactive: -5.35% |
| CCCc1cc(=O)oc2cc(OCC(=O)N3C[C@H]4C[C@@H](C3)c3cccc(=O)n3C4)ccc12 | inconclusive [inhibitor, single point] | – |
| CCN(CC)S(=O)(=O)c1ccc2c(c1)N(CC(=O)NCc1ccccc1)C(=O)CS2 | inconclusive [inhibitor, single point] | – |
| Cc1ccc(S(=O)(=O)NCc2ccco2)c(C)c1C | inconclusive [inhibitor, full curve, poor fit] | – |
| COc1cc(C(=O)Nc2sc3c(c2C(=O)O)CCC3)cc(OC)c1OC | – | inactive: -5.19% |
| Cc1cnc(NC(=O)C2=C(O)c3ccccc3S(=O)(=O)N2C)s1 | inconclusive [inhibitor, single point] | – |
| CC(CC12CC3CC(CC(C3)C1)C2)NCc1ccccc1O (stereo unspecified) | inconclusive [inhibitor, full curve, poor fit] | – |
| CCOc1cc(/C=C/c2cccc[n+]2C)ccc1O | inconclusive [inhibitor, full curve, poor fit] | – |
